Experimental data as given in patent US20250223376A1 (VOYAGER THERAPEUTICS, published 2025).

Target: T1, HER2 ECD (human, UniProt P04626 partial chain)
T1 construct: extracellular domain; also called HER2/neu; ErbB2
Test: SPR Biacore 8K, Ab captured via anti-human IgG Fc, HER2 ECD analyte, 1:1 fit

B1: HER-73 anti-HER2 bispecific antibody molecule (bispecific antibody)
chain 1: QVQLVQSGAEVKKPGASVKVSCKASGYSFTGYFINWVREAPGQGLEWMGHISSSYATSTYNQKFQGRVTFTVDTSSSTAYMELSSLRSEDTAVYYCVRSGNYEEYAMDYWGQGTLVTVSSASTKGPSVFPLAPSSKSTSGGTAALGCLVKDYFPEPVTVSWNSGALTSGVHTFPAVLQSSGLYSLSSVVTVPSSSLGTQTYICNVNHKPSNTKVDKKVE[left out - human IgG1 Fc]
chain 2: [left out - about 120 residues]GGGGSGGGGSGGGGS[left out - about 100 residues][left out - about 200 residues]
Kd: 0.2 nM | koff: 2.4e-05 s⁻¹ | kon: 130000 M⁻¹ s⁻¹
